{"source": "the supplement of paper PMC9588766", "note": "Counter-ions that a name gives are not always drawn. Whole data set: some 1,900 compounds, median “cell viability of compound + 1 nM pemigatinib relative to pemigatinib-only (DMSO) wells” near 0.95, cut for the lowest 2% near 0.22. This is one part of the list."}
{"test_system": "PDC-DUC18828", "assay": "cell viability of compound + 1 nM pemigatinib relative to pemigatinib-only (DMSO) wells (fraction); PDC-DUC18828 is a patient-derived cholangiocarcinoma cell line; higher = less growth inhibition", "conditions": "first compound 1 µM; pemigatinib concentration 1 nM; 72 h", "method": "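Selleck Bioactive library screen in the patient-derived FGFR2 fusion-positive ICC cell line PDC-DUC18828 (500 cells/well). Each compound was tested at 1 uM with 1 nM pemigatinib, in triplicate, for 72 h. Viability was read by CellTiter-Glo and normalised to plate DMSO controls. Value is the paper's averaged normalised viability.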"}
{"smiles": "CCOC(=O)[C@H]1O[C@@H]1C(=O)N[C@@H](CC(C)C)C(=O)NCCC(C)C", "note": "[Aloxistatin] + CCN1C(=O)N(c2c(F)c(OC)cc(OC)c2F)Cc2cnc3[nH]c(CN4CCOCC4)cc3c21 [pemigatinib]", "cell viability": 0.992}
{"smiles": "CCCCNc1ncc(C(=O)NCc2ccc(-n3ccnc3)cc2)c(NC2CCC(O)CC2)n1", "note": "(centres undefined) + CCN1C(=O)N(c2c(F)c(OC)cc(OC)c2F)Cc2cnc3[nH]c(CN4CCOCC4)cc3c21 [pemigatinib]", "cell viability": 0.849}
{"smiles": "C=CC(=O)Nc1cccc(Sc2nc(Nc3ccc(N4CCN(C)CC4)cc3)ncc2Cl)c1", "note": "+ CCN1C(=O)N(c2c(F)c(OC)cc(OC)c2F)Cc2cnc3[nH]c(CN4CCOCC4)cc3c21 [pemigatinib]", "cell viability": 0.75}
{"smiles": "Cc1nc2c([nH]1)-c1ccccc1N(C(=O)c1ccc(NC(=O)c3ccccc3-c3ccccc3)cc1)CC2", "note": "[Conivaptan HCl] + CCN1C(=O)N(c2c(F)c(OC)cc(OC)c2F)Cc2cnc3[nH]c(CN4CCOCC4)cc3c21 [pemigatinib]", "cell viability": 1.04}
{"smiles": "COc1ccc2c(Oc3ccc(NC(=O)c4c(C)n(CC(C)(C)O)n(-c5ccccc5)c4=O)nc3)ccnc2c1", "note": "+ CCN1C(=O)N(c2c(F)c(OC)cc(OC)c2F)Cc2cnc3[nH]c(CN4CCOCC4)cc3c21 [pemigatinib]", "cell viability": 0.827}
{"smiles": "NCCCCCC(=O)O", "note": "[(6-)ε-Aminocaproic acid] + CCN1C(=O)N(c2c(F)c(OC)cc(OC)c2F)Cc2cnc3[nH]c(CN4CCOCC4)cc3c21 [pemigatinib]", "cell viability": 0.965}
{"smiles": "CC(C)CCNC(=O)[C@H](CC(C)C)NC(=O)[C@H]1O[C@@H]1C(=O)O", "note": "[Loxistatin Acid (E-64C)] + CCN1C(=O)N(c2c(F)c(OC)cc(OC)c2F)Cc2cnc3[nH]c(CN4CCOCC4)cc3c21 [pemigatinib]", "cell viability": 1.02}
{"smiles": "c1ccc2c(CCNc3ccc(Nc4ccncc4)cc3)c[nH]c2c1", "note": "+ CCN1C(=O)N(c2c(F)c(OC)cc(OC)c2F)Cc2cnc3[nH]c(CN4CCOCC4)cc3c21 [pemigatinib]", "cell viability": 0.994}
{"smiles": "Cc1csc(-c2nnc(Nc3ccc(Oc4ncccc4-c4ccnc(N)n4)cc3)c3ccccc23)c1", "note": "+ CCN1C(=O)N(c2c(F)c(OC)cc(OC)c2F)Cc2cnc3[nH]c(CN4CCOCC4)cc3c21 [pemigatinib]", "cell viability": 0.604}
{"smiles": "Nc1nc2c(ncn2COC(CO)CO)c(=O)[nH]1", "note": "[Ganciclovir] + CCN1C(=O)N(c2c(F)c(OC)cc(OC)c2F)Cc2cnc3[nH]c(CN4CCOCC4)cc3c21 [pemigatinib]", "cell viability": 0.967}
{"smiles": "CCCCCCCCCCCCCCCC(=O)OC[C@H](O)[C@H]1OC(=O)C(O)=C1O", "note": "[L-Ascorbyl 6-palmitate] + CCN1C(=O)N(c2c(F)c(OC)cc(OC)c2F)Cc2cnc3[nH]c(CN4CCOCC4)cc3c21 [pemigatinib]", "cell viability": 0.881}
{"smiles": "Clc1cccc(Cl)c1NC1=NCCN1", "note": "[Clonidine HCl] + CCN1C(=O)N(c2c(F)c(OC)cc(OC)c2F)Cc2cnc3[nH]c(CN4CCOCC4)cc3c21 [pemigatinib]", "cell viability": 0.91}
{"smiles": "CN(C)S(=O)(=O)c1ccc2c(c1)/C(=C/c1cc3c([nH]1)CCCC3)C(=O)N2", "note": "+ CCN1C(=O)N(c2c(F)c(OC)cc(OC)c2F)Cc2cnc3[nH]c(CN4CCOCC4)cc3c21 [pemigatinib]", "cell viability": 0.917}
{"smiles": "C[C@]12C=CC(=O)N[C@@H]1CC[C@@H]1[C@@H]2CC[C@]2(C)[C@@H](C(=O)Nc3cc(C(F)(F)F)ccc3C(F)(F)F)CC[C@@H]12", "note": "[Dutasteride] + CCN1C(=O)N(c2c(F)c(OC)cc(OC)c2F)Cc2cnc3[nH]c(CN4CCOCC4)cc3c21 [pemigatinib]", "cell viability": 0.943}
{"smiles": "CO[C@H]1/C=C/O[C@@]2(C)Oc3c(C)c(O)c4c(O)c(c5c(nc6cc(C)ccn65)c4c3C2=O)NC(=O)/C(C)=C\\C=C\\[C@H](C)[C@H](O)[C@@H](C)[C@@H](O)[C@@H](C)[C@H](OC(C)=O)[C@@H]1C", "note": "[Rifaximin] + CCN1C(=O)N(c2c(F)c(OC)cc(OC)c2F)Cc2cnc3[nH]c(CN4CCOCC4)cc3c21 [pemigatinib]", "cell viability": 0.914}
{"smiles": "O=C(Cc1ccccc1)Nc1nnc(CCSCCc2nnc(NC(=O)Cc3ccccc3)s2)s1", "note": "+ CCN1C(=O)N(c2c(F)c(OC)cc(OC)c2F)Cc2cnc3[nH]c(CN4CCOCC4)cc3c21 [pemigatinib]", "cell viability": 0.902}
{"smiles": "COc1cc(-c2ncn(/C=C\\C(=O)OC(C)C)n2)cc(C(F)(F)F)c1", "note": "+ CCN1C(=O)N(c2c(F)c(OC)cc(OC)c2F)Cc2cnc3[nH]c(CN4CCOCC4)cc3c21 [pemigatinib]", "cell viability": 0.417}
{"smiles": "COc1ccc(-c2nc(N3CCOCC3)c3sc(CN(C)c4ncc(C(=O)NO)cn4)cc3n2)cn1", "note": "+ CCN1C(=O)N(c2c(F)c(OC)cc(OC)c2F)Cc2cnc3[nH]c(CN4CCOCC4)cc3c21 [pemigatinib]", "cell viability": 0.0302}
{"smiles": "COc1ccc(Cl)c(Nc2nc3ccccc3nc2NS(=O)(=O)c2cccc(NC(=O)C(C)(C)N)c2)c1", "note": "[Pilaralisib (XL147)] + CCN1C(=O)N(c2c(F)c(OC)cc(OC)c2F)Cc2cnc3[nH]c(CN4CCOCC4)cc3c21 [pemigatinib]", "cell viability": 0.851}
{"smiles": "CCCNC(=O)NS(=O)(=O)c1ccc(Cl)cc1", "note": "[Chlorpropamide] + CCN1C(=O)N(c2c(F)c(OC)cc(OC)c2F)Cc2cnc3[nH]c(CN4CCOCC4)cc3c21 [pemigatinib]", "cell viability": 1.04}
{"smiles": "Cc1cnc(Nc2ccc(OCCN3CCCC3)cc2)nc1Nc1cccc(S(=O)(=O)NC(C)(C)C)c1", "note": "+ CCN1C(=O)N(c2c(F)c(OC)cc(OC)c2F)Cc2cnc3[nH]c(CN4CCOCC4)cc3c21 [pemigatinib]", "cell viability": 0.843}
{"smiles": "Cn1ncnc1[C@H]1c2n[nH]c(=O)c3cc(F)cc(c23)N[C@@H]1c1ccc(F)cc1", "note": "+ CCN1C(=O)N(c2c(F)c(OC)cc(OC)c2F)Cc2cnc3[nH]c(CN4CCOCC4)cc3c21 [pemigatinib]", "cell viability": 0.596}
{"smiles": "O=C1NCC2(CCN(CCc3ccccc3)CC2)O1", "note": "[Fenspiride HCl] + CCN1C(=O)N(c2c(F)c(OC)cc(OC)c2F)Cc2cnc3[nH]c(CN4CCOCC4)cc3c21 [pemigatinib]", "cell viability": 0.992}
{"smiles": "Clc1ccc2c(c1)CCc1cccnc1C2=C1CCNCC1", "note": "[Desloratadine] + CCN1C(=O)N(c2c(F)c(OC)cc(OC)c2F)Cc2cnc3[nH]c(CN4CCOCC4)cc3c21 [pemigatinib]", "cell viability": 0.973}
